From PubChem BioAssay AID485344 (National Center for Advancing Translational Sciences (NCATS), 2010)
In all, about 340,000 compounds went through this assay and about 6,900 (2%) were called active. No stated cut-off is given here; in the data, active means inhibition above about 30%; inactive means below that, where a call was filed. Only a part is listed here, and it is no random draw. The source gives no active or inactive call for entries shown without one.
Further: 0% is about no effect.

The molecules below were run against D(2) dopamine receptor (Homo sapiens) (UniProt P14416) (assay: HTS Assay for Allosteric Antagonists of the Human D2 Dopamine Receptor: Primary Screen for Antagonists). Conditions: HEK293 TREx D2 cells, calcium flux, dopamine EC80; at 10 µM; stronger effect = higher value.
UniProt P14416, sequence (P14416 whole entry, looked up): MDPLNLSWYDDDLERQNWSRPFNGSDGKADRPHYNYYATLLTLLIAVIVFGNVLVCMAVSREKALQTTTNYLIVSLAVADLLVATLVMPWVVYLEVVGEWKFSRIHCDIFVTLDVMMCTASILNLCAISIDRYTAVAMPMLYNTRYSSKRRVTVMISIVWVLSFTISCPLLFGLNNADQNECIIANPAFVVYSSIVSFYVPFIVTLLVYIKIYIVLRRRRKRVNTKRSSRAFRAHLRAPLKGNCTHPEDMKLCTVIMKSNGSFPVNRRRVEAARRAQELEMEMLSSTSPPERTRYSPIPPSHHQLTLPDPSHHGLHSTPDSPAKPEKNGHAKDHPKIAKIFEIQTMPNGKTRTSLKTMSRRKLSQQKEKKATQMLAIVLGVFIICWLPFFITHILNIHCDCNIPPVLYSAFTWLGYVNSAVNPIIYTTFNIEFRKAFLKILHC
Procedure, shortened: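 Measurement of antagonist activity uses fluorescent calcium dye in inducible HEK293 T-REx D2 cells: 10 s baseline, compound addition with 180 s read, EC80 dopamine addition with a further 180 s read.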
Molecule `COc1cccc2sc(N(Cc3cccnc3)C(=O)C3COc4ccccc4O3)nc12` (stereo not drawn) has an inhibition of 6.9%. `Cc1ccc(Nc2nc3ccccc3c3nncn23)cc1C` showed an inhibition of 13.2%. `Cc1c(NC(=O)c2ccccc2F)cccc1-c1nc2cccnc2s1` was tested, and the inhibition was 26.2%. With `CC(=O)N1CCCc2cc(S(=O)(=O)N(C)CC(=O)Nc3ccc(Cl)cc3C)ccc21` the inhibition was -21%. `COc1ccc(NC(=O)c2ccc(COc3ccccc3OC)o2)cc1OC` gave an inhibition of -6.95%. Work on `CCn1cc(C(=O)NCc2ccccc2)c(=O)c2cc(S(=O)(=O)N3CCCCCC3)ccc21` yielded an inhibition of 3.48%. In the case of `COc1cccc(CNC(=O)CCC(=O)N2Cc3cccc(OC)c3Oc3ncccc32)c1OC`, the inhibition was 3.52%. Work on `CCCNC(=O)CCc1c(C)nc2nc(-c3cc(OC)cc(OC)c3)nn2c1C` yielded an inhibition of 14.2%. Work on `COc1ccc(Br)cc1CNC(=O)C1CCCCN1S(=O)(=O)c1ccc(F)cc1` (stereo not drawn) yielded an inhibition of -0.807%. `Cc1ccc(OCc2nc3ccccc3n2Cc2ccccc2Cl)cc1` was tested, and the inhibition was -4.93%. In the case of `CCc1ccc(-c2[nH]c3c(c2-c2sc(C)c(C(=O)OC)c2O)c(=O)n(C)c(=O)n3C)cc1`, the inhibition was 23.5%. Molecule `O=C(Cc1ccccc1)Nc1c(C(=O)Nc2ccccc2F)oc2ccccc12` has an inhibition of 15.7%. Molecule `Cc1cccc(-n2nnnc2S(C)(=O)=O)c1` has an inhibition of -14.6%. In the case of `COC(=O)CNC(=O)CSc1nc2c(sc(=S)n2-c2ccccc2)c(=O)[nH]1`, the inhibition was active: 44%. With `CSc1ccc(CCNC(=O)c2ccc(-n3c(C)cc4c3CCCC4)cc2)cc1` the inhibition was 10.1%. For `Cc1cc(C(=O)NNC(=O)CCN2CCN(c3ccccc3)CC2)c2ccccc2n1`, the inhibition was active: 66.9%. `CC(=O)N1N=C(c2ccc(C)cc2)CC1c1cn(-c2ccccc2)nc1-c1cccs1` (stereo not drawn) showed an inhibition of -11.6%. With `O=C(CC12CC3CC(CC(C3)C1)C2)NCC(c1ccc(F)cc1)N1CCOCC1` (stereo not drawn) the inhibition was active: 40.1%. In the case of `O=C(OCc1cc(=O)n2nc(-c3cccs3)sc2n1)c1ccc(F)cc1`, the inhibition was 13.2%. Molecule `CCN(c1ccccc1)c1nnc(NC(=O)Nc2ccc(C)cc2)s1` has an inhibition of -0.918%. `CCOc1ccc(C(=O)Nc2cccc(-c3nc4cccnc4s3)c2C)cc1OCC` was tested, and the inhibition was 24%. `COc1ccc(/C=C/c2nc(C#N)c(N3CCC(C)CC3)o2)cc1OC` gave an inhibition of -6.42%. Molecule `Cc1ccc2nc3c(cc(C#N)c(=O)n3-c3nnc(SCc4ccccc4Cl)s3)c(=O)n2c1` has an inhibition of 2.32%. For `COc1ccc(Nc2ncc3c(n2)CCN(Cc2ccc(Br)s2)C3)c(OC)c1`, the inhibition was -21.1%. Work on `Cc1ccc(C)c(N2CCN(S(=O)(=O)c3cc(C(=O)Nc4cc(Cl)cc(Cl)c4)ccc3F)CC2)c1` yielded an inhibition of -6.43%. `Cc1cccc(-c2nc(CSCC(=O)N3CCN(c4cccc(C)c4C)CC3)c(C)o2)c1` was tested, and the inhibition was -19.8%. `CCc1ccc2c(c1)NC(c1cccnc1)=NC(c1ccc(C(C)(C)C)cc1)=N2` was tested, and the inhibition was -20.7%. With `Cc1ccc(Cl)cc1NC(=O)c1cc(S(=O)(=O)N2CCCCCC2)cn1C` the inhibition was 3.53%. In the case of `COc1cc(C2CC(=O)Nc3c2c(C)nn3-c2nncc(-c3ccccc3)n2)cc(OC)c1OC` (stereo not drawn), the inhibition was -10.2%. `O=C(CSc1nc(-c2cccs2)nc2cc(=O)[nH]n12)Nc1ccccc1Cl` showed an inhibition of 3.11%. Molecule `O=C(Nc1ccccc1Cl)c1cc2c(-c3ccccc3)nn(-c3ccccc3)c2s1` has an inhibition of 0.558%. Molecule `Cc1ccc2nc(-c3ccc(Cl)c(NC(=O)c4ccc(Br)o4)c3)oc2c1` has an inhibition of -4.54%. For `CSc1ccc(CCNC(=O)c2ccc(CS(=O)Cc3ccc(Cl)cc3)o2)cc1` (stereo not drawn), the inhibition was -17%. `O=C(COCc1cc(-c2ccc3c(c2)OCO3)on1)NCc1ccc(F)cc1` showed an inhibition of 6.63%. With `Cc1nn(-c2ccccc2)c2sc(C(=O)Nc3cccc(O)c3)cc12` the inhibition was 20.3%. `O=C(NC1CCN(Cc2ccccc2)CC1)C1COc2ccccc2O1` (stereo not drawn) was tested, and the inhibition was active: 34.2%. For `Cc1ccc(-n2ncc(C(=O)Nc3c(Cl)cccc3Cl)c2C2CCNCC2)cc1`, the inhibition was -1.21%. In the case of `COc1cc(CN(C(=O)COc2ccc(Cl)c(C)c2)c2ccccn2)cc(OC)c1OC`, the inhibition was -2.12%. `Cc1csc2nc(COc3ccccc3NC(=O)c3ccccc3Cl)cc(=O)n12` was tested, and the inhibition was 15.9%. In the case of `COc1ccc(CCNC(=O)CCCn2nc(C)c3sc4ccccc4c3c2=O)cc1OC`, the inhibition was -6.2%. In the case of `Cn1c(=O)cc(OCC(=O)NCc2ccc(F)cc2Cl)c2ccccc21`, the inhibition was -4.75%. For `COc1ccc(C(CNC(=O)c2cc3ccccc3o2)N2CCCC2)cc1` (stereo not drawn), the inhibition was active: 79.4%. Molecule `Cc1ccc(-c2nc(CS(=O)(=O)CC(=O)Nc3cc(C)ccc3C)c(C)o2)cc1` has an inhibition of 10.4%. With `COc1ccc(-c2nc3scc(CCNC(=O)Cc4ccc(F)cc4)n3n2)cc1` the inhibition was -6.53%. With `CC(=O)c1c(-c2ccc(Cl)cc2Cl)noc1C` the inhibition was active: 30.2%. With `CCC(C)NC(=O)c1ccc2nc(Cc3ccccc3)oc2c1` (stereo not drawn) the inhibition was 22.1%. For `O=C(Nc1cc(Cl)cc(Cl)c1)c1ccc(F)c(S(=O)(=O)NCc2ccccc2Cl)c1`, the inhibition was 12.9%. `CCOc1ccc(NS(=O)(=O)c2ccc3nc(-c4ccccc4)[nH]c3c2)cc1` gave an inhibition of 4.8%. `Cc1ccccc1-c1nnc(SCC(=O)N2CCCCC2)o1` showed an inhibition of -16.3%. `CCN(c1ccccc1)S(=O)(=O)c1nnc(NC(=O)c2ccco2)s1` gave an inhibition of -20.1%. `COc1cc(OC)c(Nc2c3c(nc4nc(-c5cccs5)nn24)CCCC3)cc1Cl` was tested, and the inhibition was 23.8%. With `Cc1cc(C)cc(NC(=O)C2CC3CCC2C3)c1` (stereo not drawn) the inhibition was active: 55.7%. `COC(=O)C(CCSC)NC(=O)c1cc2c(n(-c3ccc(OC)cc3)c1=O)CC(C)(C)CC2=O` (stereo not drawn) showed an inhibition of 6.9%. In the case of `COc1cccc(C(=O)Nc2ccc(NC(=O)c3ccc(C(C)(C)C)cc3)cc2)c1`, the inhibition was 12.3%. `CC1(C(=O)Nc2ncc(Cc3ccc(Br)cc3)s2)Cc2ccccc2C(=O)O1` (stereo not drawn) showed an inhibition of 1.58%. `COc1cccc2c1Oc1ncccc1N(c1ccc(C(=O)NCc3cccc(C)c3)s1)C2` showed an inhibition of 3.35%. Molecule `Cc1ccc(N2CC(NC(=O)C3CCCCC3)CC2=O)cc1C` (stereo not drawn) has an inhibition of -7.18%. For `CCc1ccccc1Nc1nn2c(=O)c3ccc(C(=O)NC4CCCCC4)cc3nc2s1`, the inhibition was 15.4%. With `CCOC(=O)c1c(N)n(-c2cccc(C)c2C)c2nc3ccccc3nc12` the inhibition was 4.32%. For `COc1cc(OC)c(NC(=O)c2c3c(nn2C)-c2ccccc2SC3)cc1Cl`, the inhibition was -16.5%. For `CC(C)CCN1CCN(Cc2cccs2)CC1CCO` (stereo not drawn), the inhibition was active: 30.8%. In the case of `Cc1ccn2c(=O)c(C(=O)NCc3ccccc3Cl)c(O)nc2c1`, the inhibition was 17.1%. `CCc1ccc(CNC(=O)C2CCN(C(=O)N3CC(CC)Oc4ccc(C)cc43)CC2)cc1` (stereo not drawn) showed an inhibition of -9.43%. With `O=C(NC1CCCC1)c1ccc2c(c1)N(Cc1ccccc1Cl)C(=O)c1ccccc1S2` the inhibition was -16.8%. `Cc1cc(C)c(NC(=O)CSc2ncc(S(=O)(=O)c3ccc(C(C)(C)C)cc3)c(=O)[nH]2)c(C)c1` was tested, and the inhibition was 3.94%. With `COc1ccc(CCNC(=O)Cn2cc(S(=O)(=O)Cc3cccc(Cl)c3)c3ccccc32)cc1OC` the inhibition was 0.593%. `COc1ccc(-c2noc(CSc3nnc(-c4ccc(Cl)cc4)n3C)n2)cc1OC` gave an inhibition of -4.68%. With `Cc1ccc(Cl)cc1NC(=O)CSc1nc(C)c(C)c(C)c1C#N` the inhibition was 7.11%. `CCOc1ccccc1NC(=O)CSc1nc2c(oc3ccccc32)c(=O)n1Cc1ccco1` was tested, and the inhibition was -12.8%. Molecule `CCOC(=O)c1cnc2c(C(F)(F)F)cccc2c1Nc1cccc(C(=O)OC)c1` has an inhibition of -12.3%. `CCCCN(CCCC)CCNC(=O)c1cc(=O)[nH]c2ccc(S(=O)(=O)N3CCCCCC3)cc12` showed an inhibition of 9.66%. Molecule `Cc1ccc(CNC(=O)C2CCCN(S(=O)(=O)c3ccc4c(ccn4C)c3)C2)cc1` (stereo not drawn) has an inhibition of 6.99%. `CN1CCN(C(=O)Nc2cccc(Cl)c2)c2cccnc21` was tested, and the inhibition was 12.4%. For `CC(C)c1ccc(NC(=O)CSc2nc(=O)n(Cc3cccnc3)c3c2CCC3)cc1`, the inhibition was -16.5%. With `CC1CN(C(=O)N2CCC(C(=O)NCc3ccco3)CC2)c2cc(Cl)ccc2O1` (stereo not drawn) the inhibition was -0.456%. `COc1ccc(NC(=O)c2cc(-c3ccccc3O)no2)cc1` gave an inhibition of -14.3%. `O=C(CSc1nc(-c2cccs2)nc2cc(=O)[nH]n12)Nc1ccc(F)cc1` showed an inhibition of 5.77%. For `CCOc1ccc(NC(=O)CNS(=O)(=O)c2ccc(Br)s2)cc1`, the inhibition was 9.28%. `CCOC(=O)c1sc2ccccc2c1S(=O)(=O)N1CCN(c2ccccc2)CC1` gave an inhibition of -3.29%. Molecule `Cc1ccc(OCc2nc(-c3ccc(C(=O)NCCc4ccc(S(N)(=O)=O)cc4)cc3)oc2C)cc1` has an inhibition of 0.307%. In the case of `COC(=O)c1c(NC(=O)CCCOc2ccccc2C)sc2c1CCC(C)C2` (stereo not drawn), the inhibition was -6.6%. Work on `COc1ccccc1CNC(=O)CN1C(=O)CCc2cc(S(=O)(=O)N3CCOCC3)ccc21` yielded an inhibition of -8.81%. In the case of `O=C(Nc1ccc2nc(SCC(=O)N3CCCC3)sc2c1)c1ccccc1F`, the inhibition was -3.26%. With `COc1ccc(CNC(=O)c2c(Nc3ccccc3C)sc(C(=O)c3ccccc3)c2N)cc1` the inhibition was 13%. For `CCc1ccc(NC(=O)CCCc2nc(-c3ccco3)no2)cc1`, the inhibition was 5.37%. `CCOC(=O)C1CCCN(C(=O)Cn2ncc3c([nH]c4ccc(C)cc43)c2=O)C1` (stereo not drawn) was tested, and the inhibition was 4.27%. `O=C1Nc2ccccc2CCc2ccccc21` was tested, and the inhibition was active: 35.8%. `CCCC(CCC)C(=O)Nc1cccc(-c2cn3cccnc3n2)c1` was tested, and the inhibition was 0.45%. In the case of `CC1CCCN(CCCNC(=O)c2ccc3c(c2)N(Cc2ccc(F)cc2)C(=O)c2ccccc2S3=O)C1` (stereo not drawn), the inhibition was active: 74.3%. In the case of `Cc1ccc(C)c(N2CCN(C(=O)c3ccc4[nH]c(C)c(C)c4c3)CC2)c1`, the inhibition was 1.56%. `CCn1c(SCc2ccccc2F)nc(=O)c2c(C(=O)OC)cc(C3CC3)nc21` showed an inhibition of -4.7%. In the case of `CCOc1ccc(-c2cc(C(=O)NCc3ccc(C)cc3)c3ccccc3n2)cc1`, the inhibition was -22.3%. `Cc1cccc(N2CCN(C(=O)c3ccc(NC(=O)c4nsc5ccccc45)cc3)CC2C)c1` (stereo not drawn) showed an inhibition of 6.71%. `CCOc1ccc(Cl)cc1C1CC(=O)Nc2cc(OC)c(OC)c(OC)c21` (stereo not drawn) was tested, and the inhibition was -0.322%. `CCOC(=O)C1CCCN(c2oc(-c3ccc(F)cc3)nc2C#N)C1` (stereo not drawn) was tested, and the inhibition was active: 35.1%. `COc1ccccc1CNC(=O)c1sc2nc3n(c(=O)c2c1C)CCC3` was tested, and the inhibition was 14.7%. `CCOc1ccc(CNS(=O)(=O)c2ccc(-c3cc(C(F)(F)F)on3)s2)cc1` showed an inhibition of -17.4%. `CCOC(=O)c1ccc(NC(=O)C2CCN(S(=O)(=O)c3ccc(C)cc3)CC2)cc1` was tested, and the inhibition was -16.5%.
